For experiment [1], the target named is T1, Dfm1-Q101R (S. cerevisiae) (UniProt Q12743).
T1 sequence: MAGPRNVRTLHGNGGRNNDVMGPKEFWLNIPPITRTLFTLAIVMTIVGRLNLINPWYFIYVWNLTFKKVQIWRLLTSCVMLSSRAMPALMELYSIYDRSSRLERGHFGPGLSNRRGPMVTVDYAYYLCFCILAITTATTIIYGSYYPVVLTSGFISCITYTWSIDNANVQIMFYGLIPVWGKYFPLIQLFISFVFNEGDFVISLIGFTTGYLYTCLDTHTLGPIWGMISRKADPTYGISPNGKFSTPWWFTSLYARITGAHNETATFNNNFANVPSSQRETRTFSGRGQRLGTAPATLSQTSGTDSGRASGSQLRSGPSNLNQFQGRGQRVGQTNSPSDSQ
As to the kind of experiment: co-sedimentation; Cdc48 microsome association assay: yeast lysate split into cytosolic supernatant and microsomal pellet by centrifugation; Cdc48 in the pellet of strains expressing the variant, blot with anti-Cdc48.

Chains of the proteins cited; added tags and fusions are not shown.
UniProt P25694: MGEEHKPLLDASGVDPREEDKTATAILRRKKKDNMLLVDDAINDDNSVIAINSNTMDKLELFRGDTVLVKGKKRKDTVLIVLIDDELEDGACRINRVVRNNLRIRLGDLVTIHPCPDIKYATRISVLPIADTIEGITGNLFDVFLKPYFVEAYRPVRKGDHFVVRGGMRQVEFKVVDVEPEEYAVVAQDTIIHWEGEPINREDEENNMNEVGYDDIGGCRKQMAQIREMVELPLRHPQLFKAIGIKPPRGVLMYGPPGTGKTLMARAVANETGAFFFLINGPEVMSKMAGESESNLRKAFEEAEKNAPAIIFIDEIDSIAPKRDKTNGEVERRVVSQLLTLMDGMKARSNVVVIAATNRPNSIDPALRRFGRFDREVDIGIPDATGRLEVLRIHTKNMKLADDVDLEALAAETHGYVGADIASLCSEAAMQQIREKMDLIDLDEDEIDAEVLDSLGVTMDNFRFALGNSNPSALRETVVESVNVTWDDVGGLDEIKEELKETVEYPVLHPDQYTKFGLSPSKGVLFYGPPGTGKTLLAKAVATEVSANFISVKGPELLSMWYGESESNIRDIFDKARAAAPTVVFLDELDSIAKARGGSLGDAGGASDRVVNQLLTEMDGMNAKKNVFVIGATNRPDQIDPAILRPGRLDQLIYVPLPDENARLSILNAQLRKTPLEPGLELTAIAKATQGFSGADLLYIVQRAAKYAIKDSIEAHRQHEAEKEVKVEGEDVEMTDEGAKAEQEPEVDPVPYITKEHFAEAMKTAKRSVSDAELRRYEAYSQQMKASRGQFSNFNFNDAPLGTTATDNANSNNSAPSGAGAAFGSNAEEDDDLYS

The target in experiment [2] is T2, Dfm1-L64V (S. cerevisiae) (UniProt Q12743).
T2 sequence: T1 sequence with L64V, R101Q
Described as above.

Experiment [3] deals with T3, Hmg2-GFP (S. cerevisiae) (UniProt P12684).
T3 sequence (chain, polyubiquitin chain conjugated in cells (sites not printed)): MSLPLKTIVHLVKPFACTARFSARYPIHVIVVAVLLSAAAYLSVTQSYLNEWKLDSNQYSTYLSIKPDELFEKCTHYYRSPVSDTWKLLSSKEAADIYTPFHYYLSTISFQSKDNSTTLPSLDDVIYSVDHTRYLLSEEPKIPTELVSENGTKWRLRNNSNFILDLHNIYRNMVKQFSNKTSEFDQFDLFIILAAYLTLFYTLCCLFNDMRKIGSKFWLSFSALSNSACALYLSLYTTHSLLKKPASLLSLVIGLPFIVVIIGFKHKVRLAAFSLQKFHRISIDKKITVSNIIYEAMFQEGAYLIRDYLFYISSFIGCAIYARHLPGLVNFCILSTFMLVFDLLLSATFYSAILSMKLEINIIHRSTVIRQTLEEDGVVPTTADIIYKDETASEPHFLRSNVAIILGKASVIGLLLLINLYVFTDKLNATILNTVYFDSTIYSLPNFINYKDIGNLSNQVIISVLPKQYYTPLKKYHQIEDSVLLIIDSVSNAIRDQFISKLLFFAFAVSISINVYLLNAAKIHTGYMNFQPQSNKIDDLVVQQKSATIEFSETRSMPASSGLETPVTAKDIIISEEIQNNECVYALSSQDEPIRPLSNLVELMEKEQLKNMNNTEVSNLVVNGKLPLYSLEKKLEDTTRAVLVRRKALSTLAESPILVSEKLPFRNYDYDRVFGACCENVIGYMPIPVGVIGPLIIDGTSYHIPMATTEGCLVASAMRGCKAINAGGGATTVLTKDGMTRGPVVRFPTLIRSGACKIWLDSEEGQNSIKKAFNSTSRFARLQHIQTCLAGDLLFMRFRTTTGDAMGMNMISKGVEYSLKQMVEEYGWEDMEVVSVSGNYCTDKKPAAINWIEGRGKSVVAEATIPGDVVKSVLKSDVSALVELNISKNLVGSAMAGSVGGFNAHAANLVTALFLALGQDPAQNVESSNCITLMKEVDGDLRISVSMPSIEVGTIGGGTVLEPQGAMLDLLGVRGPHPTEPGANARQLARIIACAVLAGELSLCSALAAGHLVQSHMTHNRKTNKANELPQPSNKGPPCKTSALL
As to the kind of experiment: condition: only after removal of the ubiquitin chain from Hmg2-GFP with Usp2Core; co-IP; solubilised microsomes treated with Usp2Core (5 μg, 1 hr, 37°C) to remove ubiquitin from Hmg2-GFP, then GFP-Trap precipitation of Hmg2-GFP; blots for ubiquitin, Cdc48, Dfm1-HA.

The target of experiment [4] is T3, Hmg2-GFP (S. cerevisiae). Description: co-IP; free polyubiquitin competition test: solubilised microsomes incubated with Lys48-linked polyubiquitin chains (2, 5, 10 μg) or buffer for one hour at 4°C, then GFP-Trap precipitation of Hmg2-GFP; blots for Cdc48, Dfm1-HA.
The target in experiment [5] is T3, Hmg2-GFP (S. cerevisiae). Description: co-IP; substrate (Hmg2-GFP, Ste6*-GFP, CPY*-GFP with GFP-Trap; Pdr5*-Myc with Myc Trap) precipitated from yeast microsomes solubilised in Tween IP buffer (500 mM NaCl, 50 mM Tris pH 7.5, 10 mM EDTA, 1.5% Tween-20), overnight 4°C; blots with anti-HA, anti-Cdc48.

Changes are numbered by the printed parent chain. These are yes or no findings as the source states them, for the method shown. Binding seen in cells or lysates may run through a third protein. Some entries that bind do so weakly or less than the wild type. For some assays here: Tags and fused reporters may be left off the sequences shown.

For 1 substance, binding results are on record in publication PMC8641752.

On to Cdc48 (from UniProt P25694 1-835), for which the binding entry is “binds” in experiment [1]; “binds” in experiment [2]; “no binding” with Hmg2-GFP (S. cerevisiae) [3]; “binds” with Hmg2-GFP (S. cerevisiae) [4]; “binds” with Hmg2-GFP (S. cerevisiae) [5].
